Hit rate of the full screen: of about 16,000 compounds, about 120 (0.75%) were called active. Roughly 4% stayed inconclusive and do not appear here. Calls come from the whole dose curve; as a rule, active = well fitted inhibition curve with a large enough effect; inconclusive = small, poorly fitted or top-dose-only effect; inactive = no such curve, though single readings can be large or run the other way. Some of the results follow.
target: Rap guanine nucleotide exchange factor 3 (Homo sapiens) (UniProt O95398); assay: Validation qHTS for antagonist of cAMP-regulated guanine nucleotide exchange factor 3 (EPAC1); conditions: EPAC1 Rap1B-BODIPY-GDP exchange, fluorescence; series mostly up to 150 µM; activity change, negative = inhibition: at the top concentration; note: nearly all actives have a fitted effect of over 75% in size
UniProt O95398, sequence (O95398 whole entry, looked up): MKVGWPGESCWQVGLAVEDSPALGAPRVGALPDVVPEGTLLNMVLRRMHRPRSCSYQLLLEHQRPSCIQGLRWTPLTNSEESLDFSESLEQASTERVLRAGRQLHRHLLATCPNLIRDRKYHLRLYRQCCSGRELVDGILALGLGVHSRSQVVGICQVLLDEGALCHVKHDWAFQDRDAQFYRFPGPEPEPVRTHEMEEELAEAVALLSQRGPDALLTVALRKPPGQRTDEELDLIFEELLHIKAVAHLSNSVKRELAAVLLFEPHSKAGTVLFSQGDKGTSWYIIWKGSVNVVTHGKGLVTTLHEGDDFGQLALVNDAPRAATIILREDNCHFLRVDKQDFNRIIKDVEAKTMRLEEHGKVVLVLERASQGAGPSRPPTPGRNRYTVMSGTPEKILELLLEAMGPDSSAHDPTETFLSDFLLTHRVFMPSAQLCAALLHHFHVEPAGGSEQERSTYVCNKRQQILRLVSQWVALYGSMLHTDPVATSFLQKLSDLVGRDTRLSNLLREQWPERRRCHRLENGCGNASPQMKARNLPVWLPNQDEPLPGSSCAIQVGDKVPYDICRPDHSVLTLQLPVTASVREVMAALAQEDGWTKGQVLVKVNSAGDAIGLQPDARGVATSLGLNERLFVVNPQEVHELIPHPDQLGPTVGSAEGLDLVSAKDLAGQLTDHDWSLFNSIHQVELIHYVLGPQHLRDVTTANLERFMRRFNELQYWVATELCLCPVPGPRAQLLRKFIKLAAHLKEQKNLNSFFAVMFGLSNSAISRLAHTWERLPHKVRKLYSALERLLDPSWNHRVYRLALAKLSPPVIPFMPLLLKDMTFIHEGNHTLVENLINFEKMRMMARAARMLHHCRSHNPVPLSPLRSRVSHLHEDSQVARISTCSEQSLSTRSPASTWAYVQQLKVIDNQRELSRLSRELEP
Procedure, shortened: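 EPAC1 (100 nM) mixed with 250 nM RAP1B-BODIPY-GDP and 50 uM GDP; compounds in concentration series, 5 min at room temperature. Fluorescence (ex 480/em 540 nm) read every 5 min for 30 min; normalized to ATA control and DMSO.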

Activity change, negative = inhibition, inactive:
O=C(O)c1cc2ccccc2[nH]1 7.24%
O=c1c(-c2ccccc2)nc2cnc(N3CCOCC3)nc2n1C1CC1 -5.26%
CN(Cc1ccco1)c1cc(-c2cccc(C#N)c2)ncn1 0.164%
O=c1cc(-c2ccccc2)oc2cc(O)c(O)cc12 -11.4%
CCN(CC)CCOc1ccc(Cc2ccccc2)cc1
CCCCCCCCCCCCCCCC(=O)OCCC1CCN(CCCN2c3ccccc3Sc3ccc(S(=O)(=O)N(C)C)cc32)CC1 16.5%
N#CCCn1c(=O)c(-c2ccccc2)nc2cnc(N3CCNCC3)nc21 7.97%
Cc1ccc(S(=O)(=O)NC(=O)NN2CC3CCCC3C2)cc1 (stereo not given)
CCC(C)C(C(=O)OCC[N+](C)(CC)CC)c1ccccc1 (stereo not given) 27.5%
CC(C)CN1CCCC2(CCN(C(=O)c3cccc(F)c3)CC2)C1 8.67%
Cc1cc(C(=O)NCC2CCC3(CCN(Cc4ccccc4C)CC3)O2)n(C)n1 (stereo not given) 9.45%
OCC1OC(n2cnc3c(Cl)ncnc32)C(O)C1O (stereo not given) 14.2%
CC(C)C(N)C(=O)O (stereo not given) -18.2%
O=C1Nc2ccccc2C(=O)N2CCC[C@@H]12 25.2%
COc1cc(NS(C)(=O)=O)ccc1Cc1c2ccccc2nc2ccccc12 11.4%
COc1ccc(-c2cc(=O)c3c(O)cc(O)cc3o2)cc1
Cc1cnc(C)c(-c2ccc3c(c2)CC(CNC(=O)Cc2c(C)[nH]c4ccccc24)O3)n1 (stereo not given) 3.83%
CC(=O)N[C@@H](CC(=O)N[C@@H](CCC(=O)O)C(=O)O)C(=O)O -1.35%
c1ccc(C(NCCNC(c2ccccc2)c2ccccc2)c2ccccc2)cc1 -11.5% [at 75.8 µM]
O=S(=O)(c1ccccc1)N1CCC2(CCCN(C(c3ccccc3)c3ccccc3)C2)CC1 4.72%
Cc1cnc(CNc2ncncc2-c2ccccc2C#N)cn1 20%
CC(=O)N[C@@H](C=O)[C@H](O)[C@H](O)[C@@H](O)CO
CC(=O)Oc1ccc2c(c1C(C)C)CCC1C(C)(C)CCC[C@@]21C (stereo not given in full) -9.52%
CCCC[C@@H](C=O)NC(=O)[C@H](CC(C)C)NC(=O)OCc1ccccc1 -45.9% [at 201 µM]
CN(C)Cc1ccccc1-c1cc(Nc2ccccc2)ncn1 20%
O=C(NCc1nnc2n1CCN(Cc1cc(F)cc(F)c1)CC2)c1cccc(F)c1 -7.52%
OCCCc1ccccc1 -12.9%
CO/N=C(/C(=O)N[C@@H]1C(=O)N2C(C(=O)OCOC(=O)C(C)(C)C)=C(C)CS[C@H]12)c1csc(N)n1 9.71%
Cc1noc(C)c1-c1cc(NCc2cccnc2)ncn1 1.14%
COc1nc(C)nc(Cl)c1NC1=NCCN1
CCn1cc(C(=O)O)c(=O)c2cnc(N3CCNCC3)nc21
CCc1nc(CN2CCOc3ccc(C(O)C4CCCCC4)cc3C2)c(C)[nH]1 (stereo not given) -2.1%
CCCCS(=O)(=O)N[C@@H](Cc1ccc(OCCCCC2CCNCC2)cc1)C(=O)O 12.2%
NCCS(=O)(=O)O
CCN1CCCC1CNCc1cc2c(OC)c(OC)c(OC)cc2nc1N(C)C (stereo not given) 6.43%
C[C@@](N)(Cc1ccc(O)cc1)C(=O)O 20.3%
N#CC(C#N)=C(N)/C(C#N)=C/c1ccc(O)cc1 6.09% [at 75.8 µM]
COc1cccc(Nc2ncc3nc(C)c(=O)n(C)c3n2)c1 -0.608%
CN[C@@H]1[C@H](O[C@H]2[C@H](O[C@H]3[C@H](O)[C@@H](O)[C@H](N=C(N)N)[C@@H](O)[C@@H]3N=C(N)N)O[C@@H](C)[C@]2(O)C=O)O[C@@H](CO)[C@H](O)[C@H]1O 2.03%
Cc1cccc(C(=O)O)c1O -10.6%
COCC(=O)N1CCC[C@@]2(CCN(c3ccncc3)C2)C1 2.52%
Cn1cc(C(=O)[C@@H]2CCc3nc[nH]c3C2)c2ccccc21 -6.92%
Nc1nc(Cl)nc2c1ncn2[C@H]1C[C@H](O)[C@@H](CO)O1
COCCn1c(=O)c(CCc2ccccc2)nc2cnc(N(C)C)nc21 4.26%
COc1cccc(-n2c(SC)nnc2C2CCN(Cc3nc4ccccc4s3)CC2)c1 -3.44%
CNC(C)[C@@H]1CC[C@@H](N)[C@@H](O[C@H]2[C@H](O)[C@@H](O[C@H]3OC[C@](C)(O)[C@H](NC)[C@H]3O)[C@H](N)C[C@@H]2N)O1 (stereo not given in full) 16.4% [at 75.8 µM]
Oc1cccc(-c2c3nc(c(-c4cccc(O)c4)c4ccc([nH]4)c(-c4cccc(O)c4)c4nc(c(-c5cccc(O)c5)c5ccc2[nH]5)CC4)C=C3)c1
C=C1CCC[C@]2(C)C[C@H]3OC(=O)[C@H](CNCCc4ccccc4OC)C3CC12 (stereo not given in full) -5.64%
COc1cccc(CN2CCC3(CC2)c2ccccc2[C@@H](NC(=O)c2ccccc2OC)[C@@H]3O)c1 6.61%
CC(=O)Oc1ccc(C)cc1 1.32%
COc1ccc(CN2C[C@H](Sc3nc4ccccc4[nH]3)C[C@H]2C(=O)N2CCCN(C)CC2)cc1C 6.86%
CC1(C)CO[C@@H](CC(=O)O)CN1 17.2%
COc1cc(-c2noc(C)c2C#CCCN2C(=O)c3ccccc3C2=O)cc(OC)c1OC 8.84%
O=C1CCN(CCc2ccccc2)CCN1[C@H](COc1ccccc1)c1ccccc1 -3.33%
COc1cccc2c1[C@@H]1CN(CCCCn3c(=O)[nH]c4c(sc5ncc(-c6ccccc6)nc54)c3=O)C[C@@H]1CO2 -11.2% [at 75.8 µM]
COc1ccc(C(=O)N2CCC[C@@]3(CCN(c4ccccn4)C3)C2)cc1 16.8%
CCCCCCCCCCCCCCCC(=O)OC[C@@H](O)[C@H]1OC[C@H](O)[C@H]1O 24.8%
NCCNC(=O)c1ccc(Cl)cn1 -4.67%
O=C(c1ccc2c(c1)OCO2)N1CCOc2ccc(CN3CCC(Oc4cccnc4)CC3)cc2C1 8.84%
O=C(/C=C/c1ccc(O)c(O)c1)O[C@H]1C[C@@](O)(C(=O)O)CC(O)C1O (stereo not given in full) 7.75%
FC(F)(F)C(F)(F)C(F)(F)C(F)(F)C(F)(F)C(F)(F)F 16.5%
CC(C)C(NS(C)(=O)=O)c1nnc2n1CCN(Cc1cccc3ncccc13)CC2 (stereo not given) 9.89%
CC(C)NC(=O)N1CCC2(CC1)CCN(C(=O)c1ccco1)CC2 33%
O=C(c1cc(C(F)(F)F)cc(C(F)(F)F)c1)N1CCC2(CC1)CN(c1ccccn1)C2 -14.1%
COc1cccc2c1C(=O)c1c(O)c3c(c(O)c1C2=O)C[C@@](O)(C(=O)CO)C[C@@H]3O[C@H]1C[C@H](N)[C@H](O)[C@H](C)O1

From PubChem BioAssay AID1645882 (National Center for Advancing Translational Sciences (NCATS), 2021)
